Values marked as one replicate rest on one cluster of the flow cell; about a third of the high ones do not repeat.
Each sequence was assayed on ATP (assay: switch fluorescence ratio, 500 uM ATP over buffer (Cy3 cluster intensity, sum of 5 cycles each) (fold (ratio)); higher = stronger signal-on switching upon ATP binding; sequences stand for … in TCGTCGGCAGCGTCAGATGTGTATAAGAGACAGTTTTTTTTTTTTTTTTTTTTTTTTT…TC). Settings: aptamer strand: ATP DNA aptamer (quencher-CACCTGGGGGAGTATTGCGGAGGAAGG + anchor), 100 nM annealed; ATP concentration: 500 uM; one replicate.
In short: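 The fluorescence ratio divides summed target-cycle Cy3 intensity by summed buffer-cycle Cy3 intensity for each cluster and is averaged per switch-domain sequence. Cy3-labelled switching-strand clusters on a modified Illumina MiSeq flow-cell were annealed to 100 nM quencher-labelled ATP aptamer, then imaged in selection buffer and again after 15 min with 500 uM ATP at 22 °C. Five such cycles were run, with NaOH stripping and re-annealing between them, and clusters outside 100-1000 RFU were excluded.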
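Note: ATP exposure 15 min at 22 °C before imaging.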

| Sequence | switch fluorescence ratio |
| --- | --- |
| ATACGTTCGT | 1.01 |
| ATACTATCA | 1.05 |
| ATACTCACAC | 1.37 |
| ATACTGGAT | 1.01 |
| ATACTGGATA | 1.02 |
| ATAGAAAGCG | 0.971 |
| ATAGAACCTC | 1.06 |
| ATAGAACGGC | 1.05 |
| ATAGACAGAA | 1.03 |
| ATAGACCTAA | 1.02 |
| ATAGACTTAC | 1.27 |
| ATAGAGCTGG | 1.03 |
| ATAGAGGGGA | 0.983 |
| ATAGAGGGGC | 1.04 |
| ATAGATCCCC | 0.986 |
| ATAGATGTG | 0.961 |
| ATAGATGTTT | 0.988 |
| ATAGCACCCG | 1.03 |
| ATAGCAGTCC | 1.28 |
| ATAGCATCCG | 1.07 |
| ATAGCCTCGA | 0.962 |
| ATAGCGCCC | 1.04 |
| ATAGCTAGGG | 0.984 |
| ATAGCTCACT | 0.985 |
| ATAGGAACT | 1 |

| Sequence | switch fluorescence ratio |
| --- | --- |
| ATAGGAATAC | 3.85 |
| ATAGGAATTA | 0.99 |
| ATAGGATGGT | 1 |
| ATAGGCGGG | 1.04 |
| ATAGGGAAGA | 1.07 |
| ATAGGGATTA | 1.03 |
| ATAGGGGAGC | 0.97 |
| ATAGGGGTCC | 0.978 |
| ATAGGTACAA | 1.03 |
| ATAGGTTAT | 0.977 |
| ATAGTAAGTG | 0.98 |
| ATAGTACACC | 1.07 |
| ATAGTCAGGT | 0.984 |
| ATAGTCGCTC | 0.937 |
| ATAGTCTCAA | 0.996 |
| ATAGTGAATT | 1.03 |
| ATAGTGAGC | 1.02 |
| ATAGTGTGCT | 1.01 |
| ATAGTGTTTG | 0.985 |
| ATAGTTCATT | 1.04 |
| ATAGTTCCTT | 1.01 |
| ATAGTTTTAG | 0.998 |
| ATATAAATG | 1.03 |
| ATATACAGGC | 1.06 |
| ATATACTCAC | 1.3 |

| Sequence | switch fluorescence ratio |
| --- | --- |
| ATATAGCAGT | 1.01 |
| ATATAGGGAG | 1.02 |
| ATATAGGTAA | 0.961 |
| ATATATAACT | 1.01 |
| ATATATCGAT | 0.977 |
| ATATATTTTC | 1.01 |
| ATATCATGGC | 1.03 |
| ATATCCATGA | 0.991 |
| ATATCCCCCG | 1.18 |
| ATATCGCGTT | 0.928 |
| ATATCGTAAC | 1.01 |
| ATATCTCGCT | 0.976 |
| ATATCTTGCG | 1.02 |
| ATATGACGGG | 1.03 |
| ATATGAGCCG | 1.06 |
| ATATGCGTTG | 0.987 |
| ATATGCTCGC | 1.21 |
| ATATGCTGTT | 1.03 |
| ATATGGAAAG | 1.04 |
| ATATGGACAT | 1.05 |
| ATATGGCCCT | 0.989 |
| ATATGGGCGA | 0.966 |
| ATATGGTTCT | 0.959 |
| ATATGTACGA | 1.04 |
| ATATGTCCG | 0.945 |

| Sequence | switch fluorescence ratio |
| --- | --- |
| ATATGTGCTC | 0.988 |
| ATATGTGTAA | 0.995 |
| ATATTAGACA | 1.01 |
| ATATTATATT | 0.987 |
| ATATTATGTC | 1.08 |
| ATATTCACGT | 1.04 |
| ATATTCACTA | 0.974 |
| ATATTCATGG | 0.99 |
| ATATTCCGGT | 0.969 |
| ATATTGTAAA | 0.991 |
| ATCAAAACG | 1.02 |
| ATCAAAGTGG | 0.994 |
| ATCAAATTC | 1.04 |
| ATCAAATTGA | 0.992 |
| ATCAAATTTG | 0.991 |
| ATCAACAAT | 1.03 |
| ATCAACACG | 1.06 |
| ATCAACGAAT | 0.965 |
| ATCAAGATGA | 0.981 |
| ATCAATAAGG | 0.992 |
| ATCAATCGGC | 1.01 |
| ATCAATCGGG | 1.04 |
| ATCAATGGAG | 1.04 |
| ATCACGTTTA | 1.01 |
| ATCACTTCTT | 0.994 |
